This assay deals with M. tuberculosis H37Rv. Nature of the assay: microbe, parasite or virus in culture. Type of assay: cell-based. Conditions: Mycobacterium tuberculosis, read-out: MIC90 against replicating M. tuberculosis H37Rv and both sensitive and MDR clinical strains.

Values after ≈ are worked out from the molar mass of the structure shown.

For `O=[N+]([O-])c1cc2c(ccc3c4cc([N+](=O)[O-])oc4ccc23)o1` [nNF-C3, 2,7-Dinitronaphtho[2,1-b:6,5-b']difuran], the MIC90 lay in the range of 0.031 to 0.5 mg/L (≈ 0.104 to 1.68 µM).

Source of the values: article PMC9841431 (Nucleic Acids Research, 2022).
